Laboratory results taken from the antibiotic and cytotoxicity screens of Wong et al. (2023).
The list shows a part of the results.

What was measured:
HSkMC = human skeletal muscle cells; test: cytotoxicity call (relative viability < 0.9); conditions: 10 µM
HepG2 = test: cytotoxicity call (relative viability < 0.9); conditions: 10 µM
S. aureus RN4220 = test: growth inhibition call (relative growth <= 0.2); conditions: 50 µM

SMILES | cytotoxicity call (HSkMC) | cytotoxicity call (HepG2) | growth inhibition call (S. aureus RN4220)
Cc1cc(C(=O)Nc2cccc3c2O[C@@H](CN(C)S(C)(=O)=O)[C@H](C)CN([C@H](C)CO)C3=O)n(C)n1 | inactive | inactive | inactive
Cc1ccc(S(=O)(=O)Nc2ccc3c(c2)CC(=O)N([C@H](C)CO)C[C@@H](C)[C@H](CN(C)S(C)(=O)=O)O3)cc1 | inactive | inactive | inactive
COc1ccccc1C#Cc1cnc2c(c1)C(=O)N([C@H](C)CO)C[C@@H](C)[C@H](CN(C)S(=O)(=O)c1cn(C)cn1)O2 | active | active | inactive
C[C@H](CO)N1C[C@H](C)[C@H](CN(C)Cc2ccc(Oc3ccccc3)cc2)Oc2c(NC(=O)C3CC3)cccc2C1=O | inactive | inactive | inactive
C[C@@H]1CCCCO[C@H](CN(C)CC2CC2)[C@H](C)CN([C@@H](C)CO)C(=O)c2cc(NS(C)(=O)=O)ccc2O1 | inactive | inactive | inactive
C[C@H](CO)N1C[C@H](C)[C@@H](CN(C)Cc2ccc(Cl)c(Cl)c2)Oc2ccc(NS(=O)(=O)c3ccc(F)cc3)cc2C1=O | inactive | inactive | inactive
C[C@H]1CN([C@@H](C)CO)C(=O)c2cc(C#Cc3ccc(F)cc3)cnc2O[C@@H]1CN(C)CC1CCOCC1 | inactive | inactive | inactive
COc1ccc(S(=O)(=O)Nc2ccc3c(c2)CC(=O)N([C@@H](C)CO)C[C@@H](C)[C@@H](CN(C)S(C)(=O)=O)O3)cc1 | inactive | inactive | inactive
Cc1noc(C)c1NC(=O)N(C)C[C@@H]1Oc2c(NC(=O)c3ccc(-c4nccs4)cc3)cccc2C(=O)N([C@@H](C)CO)C[C@H]1C | inactive | inactive | inactive
CO[C@@H]1CN(C)C(=O)c2cc(NC(=O)C3CC3)ccc2OC[C@H](C)N(C(=O)C2CCOCC2)C[C@@H]1C | inactive | inactive | inactive
COc1cccc(-c2cnc3c(c2)C(=O)N([C@H](C)CO)C[C@H](C)[C@H](CN(C)C(=O)Nc2cccc4ccccc24)O3)c1 | inactive | inactive | inactive
Cc1noc(C)c1S(=O)(=O)Nc1ccc2c(c1)CC(=O)N([C@@H](C)CO)C[C@H](C)[C@@H](CN(C)S(=O)(=O)c1ccccc1)O2 | inactive | inactive | inactive
Cc1noc(C)c1S(=O)(=O)N(C)C[C@H]1OCCCC[C@@H](C)Oc2ccc(NC(=O)Nc3ccccc3)cc2C(=O)N([C@@H](C)CO)C[C@@H]1C | inactive | active | inactive
CC(=O)Nc1ccc(S(=O)(=O)NC(=O)Cn2nnc(COc3ccc(C)cc3)c2-c2ccccc2)cc1 | inactive | inactive | inactive
COc1ccc2c3c(n(c2c1)C)[C@@H](CO)N(C[C@]13CCN(CC1)C(=O)c1ccccc1F)C(=O)Nc1ccccc1F | active | inactive | inactive
C[C@@H]1CN([C@H](C)CO)C(=O)c2cc(C#CCN(C)C)cnc2O[C@@H]1CN(C)C(=O)CCN1CCCCC1 | inactive | inactive | inactive
C[C@@H]1CN([C@@H](C)CO)C(=O)c2cccc(NS(=O)(=O)c3ccccc3)c2O[C@@H]1CN(C)Cc1ccc(Oc2ccccc2)cc1 | inactive | inactive | inactive
C/C=C/c1ccc2c(c1)O[C@H](CN(C)C(=O)c1ccc3c(c1)OCO3)[C@@H](C)CN([C@H](C)CO)S2(=O)=O | inactive | inactive | inactive
CCCCCCCCCCCCCCCC(=O)OC[C@@H](NC(=O)C(Cl)Cl)[C@H](O)c1ccc([N+](=O)[O-])cc1 | inactive | inactive | inactive
C[C@@H]1CN([C@H](C)CO)C(=O)Cc2cc(NC(=O)Cn3cnnn3)ccc2O[C@@H]1CN(C)C(=O)Nc1ccc(F)cc1 | inactive | inactive | inactive
CC1=NCC[C@@H](C(=O)O)N1 | inactive | inactive | inactive
c1ccc(Nc2ncnc3cc(-c4ccccc4)sc23)cc1 | inactive | inactive | inactive
C[C@@H]1CN([C@H](C)CO)C(=O)CCCn2cc(nn2)CO[C@H]1CN(C)S(=O)(=O)c1ccccc1C#N | inactive | inactive | inactive
C[C@H]1CN([C@@H](C)CO)C(=O)c2cc(C#Cc3ccccn3)cnc2O[C@H]1CN(C)C(=O)c1cnccn1 | inactive | inactive | inactive
C[C@@H]1CN([C@@H](C)CO)C(=O)c2cc(NC(=O)Nc3cccc4ccccc34)ccc2O[C@@H](C)CCCCO[C@H]1CN(C)Cc1ccccc1 | inactive | active | inactive
C[C@H](CO)N1C[C@H](C)[C@@H](CN(C)CC2CC2)OCCCC[C@H](C)Oc2ccc(NC(=O)c3ccccc3)cc2C1=O | inactive | inactive | inactive
C[C@H](CO)N1C[C@H](C)[C@@H](CN(C)Cc2ccccc2)OCCCC[C@H](C)Oc2ccc(NC(=O)CCC(F)(F)F)cc2C1=O | inactive | inactive | inactive
O=c1[nH]ncn1-c1ccccc1 | inactive | inactive | inactive
C[C@H]1CN([C@@H](C)CO)C(=O)c2c(c3ccccc3n2C)-c2ccccc2CO[C@@H]1CN(C)Cc1ccc(C(=O)O)cc1 | inactive | inactive | inactive
